Experimental data reported in PMC4094278, “The Dictyostelium discoideum RACK1 orthologue has roles in growth and development” (Cell Communication and Signaling : CCS, 2014).
These are yes or no findings as the source states them, for the method shown. Some binding calls cover weakened binding; strength is not graded here. Tags and fused reporters may be left off the sequences shown.

Tests used:
Assay in all cases: two-hybrid; yeast Y190; DdRACK1 in pACT2 (GAL4 AD), G protein subunits in pAS2-1 (GAL4 BD); growth on SD/-Leu/-Trp/-His/+3AT plates and colony-lift β-galactosidase assay read at 1 to 6 h and after 24 h
[1] = biological target: T1, D. discoideum G protein α12-subunit fused to the GAL4 DNA-binding domain (pAS2-1) (D. discoideum) (UniProt Q54VG1)
T1 sequence: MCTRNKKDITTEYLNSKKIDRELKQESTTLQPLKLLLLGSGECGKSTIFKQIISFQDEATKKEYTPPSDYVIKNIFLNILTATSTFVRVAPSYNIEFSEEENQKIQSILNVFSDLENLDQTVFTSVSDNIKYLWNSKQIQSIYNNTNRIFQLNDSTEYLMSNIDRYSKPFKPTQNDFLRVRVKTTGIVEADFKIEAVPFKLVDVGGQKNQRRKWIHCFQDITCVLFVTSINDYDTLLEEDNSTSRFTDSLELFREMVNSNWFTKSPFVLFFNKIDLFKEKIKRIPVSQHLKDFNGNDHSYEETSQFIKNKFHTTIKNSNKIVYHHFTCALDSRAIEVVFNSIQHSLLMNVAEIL

[2] = biological target: T2, D. discoideum G protein α6-subunit fused to the GAL4 DNA-binding domain (pAS2-1) (D. discoideum) (UniProt P34044)
T2 sequence: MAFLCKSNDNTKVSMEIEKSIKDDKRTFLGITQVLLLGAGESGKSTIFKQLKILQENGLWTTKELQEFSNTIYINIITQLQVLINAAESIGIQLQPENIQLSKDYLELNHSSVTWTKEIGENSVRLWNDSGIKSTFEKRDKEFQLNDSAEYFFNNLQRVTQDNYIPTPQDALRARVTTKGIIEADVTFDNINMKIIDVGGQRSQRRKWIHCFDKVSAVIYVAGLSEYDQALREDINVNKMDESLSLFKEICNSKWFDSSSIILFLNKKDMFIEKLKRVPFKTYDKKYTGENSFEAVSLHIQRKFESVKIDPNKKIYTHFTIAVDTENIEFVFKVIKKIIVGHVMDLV

[3] = biological target: T3, D. discoideum G protein α4-subunit fused to the GAL4 DNA-binding domain (pAS2-1) (D. discoideum) (UniProt P34042)
T3 sequence: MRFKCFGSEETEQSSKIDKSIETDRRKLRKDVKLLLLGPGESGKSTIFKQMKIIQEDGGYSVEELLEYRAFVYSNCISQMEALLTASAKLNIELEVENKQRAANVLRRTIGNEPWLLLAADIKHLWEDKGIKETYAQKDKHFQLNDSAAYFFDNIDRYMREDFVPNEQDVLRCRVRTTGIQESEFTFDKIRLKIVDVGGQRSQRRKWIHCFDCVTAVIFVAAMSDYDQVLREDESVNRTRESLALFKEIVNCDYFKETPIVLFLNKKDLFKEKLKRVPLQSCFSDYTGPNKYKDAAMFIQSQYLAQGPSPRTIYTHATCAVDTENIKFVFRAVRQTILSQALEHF

[4] = biological target: T4, D. discoideum G protein α9-subunit fused to the GAL4 DNA-binding domain (pAS2-1) (D. discoideum) (UniProt Q54R41)
T4 sequence: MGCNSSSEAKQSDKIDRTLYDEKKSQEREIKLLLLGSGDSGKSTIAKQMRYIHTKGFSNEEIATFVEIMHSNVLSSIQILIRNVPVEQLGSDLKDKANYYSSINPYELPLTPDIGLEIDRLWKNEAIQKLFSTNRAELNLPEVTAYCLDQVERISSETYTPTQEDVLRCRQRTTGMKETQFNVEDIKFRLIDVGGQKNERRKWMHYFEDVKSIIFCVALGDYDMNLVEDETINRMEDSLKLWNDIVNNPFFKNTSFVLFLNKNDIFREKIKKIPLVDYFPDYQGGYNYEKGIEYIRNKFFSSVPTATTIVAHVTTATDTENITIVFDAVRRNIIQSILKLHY

[5] = biological target: T5, D. discoideum G protein α1-subunit fused to the GAL4 DNA-binding domain (pAS2-1) (D. discoideum) (UniProt P16894)
T5 sequence: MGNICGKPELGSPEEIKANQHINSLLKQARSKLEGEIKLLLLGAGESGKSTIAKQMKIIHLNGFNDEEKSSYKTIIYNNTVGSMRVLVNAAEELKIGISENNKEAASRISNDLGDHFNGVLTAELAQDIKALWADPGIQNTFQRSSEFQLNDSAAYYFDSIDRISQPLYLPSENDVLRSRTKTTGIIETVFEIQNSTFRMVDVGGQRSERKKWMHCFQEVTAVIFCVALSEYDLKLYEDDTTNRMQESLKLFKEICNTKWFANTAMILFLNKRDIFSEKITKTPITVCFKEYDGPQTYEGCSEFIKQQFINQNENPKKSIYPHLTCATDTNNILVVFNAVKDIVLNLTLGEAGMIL

B1: DdRACK1 fused to the GAL4 activation domain (pACT2) (protein, UniProt P46800 1-329)
chain: MEQQKAPQVTYLEVGSLVGHNGFVTSIAVSPENPDTIISSSRDKTVMVWQLTPTDATSPGKAHRSLKGHSHFVQDVVISHDGQFALSGSWDNTLRLWDITKGVSTRLFKGHTQDVMSVAFSSDNRQIISGSRDATIKVWNTLGECKFTLEGPEAHQDWVSCIRFSPNTPTIVSGSWDNKVKIWDIKSFKCNHTLTDHTGYVNTVTISPDGSLCASGGKDTFACLWELSSGKPLYKLEARNTINALAFSPNKYWLSAATDDKIIIWDLLTKQVLAEIVPEVKEQAFDSKKKKESKPKAPACLSLAWSADGSVLYAGYNDGLIRVYKSSSQ
binding [1]: no binding
binding [2]: no binding
binding [3]: binds weakly
binding [4]: no binding
binding [5]: no binding
